Measured values from PubChem BioAssay AID652154 (Broad Institute, 2013).
The campaign covered roughly 360,000 compounds. About 4,200 (1.2%) were called active. Inconclusive means that the source gave no clear call. Such entries were picked first, then a sample of the others.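 The calls were made as follows: active = mean replicate inhibition at least 60% with every replicate also reaching 60%; inconclusive = only one of the two criteria is met; inactive = mean below 60% and not all replicates reaching 60%.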 More than one record can exist for a structure, and the calls need not agree.

assay: inhibitors of PAX8-driven TPO luciferase reporter, primary screen, RMG-I cells, single concentration (AID 652154); settings: SteadyGlo, 24 h, at 12.6 µM, hits give high values;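 also: luciferase light reporting Pax8 driven TPO promoter activity; plate controls were median of neutral control wells for no effect and mitoxantrone controls for full effect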

inhibition, active:
C[C@@H]1CN([C@H](C)CO)C(=O)c2cc(NS(=O)(=O)c3ccc(Cl)cc3)ccc2O[C@@H](C)CCCCO[C@H]1CN(C)Cc1ccc(Cl)c(Cl)c1 113%, Cc1cccc(N(Cc2ccccc2)C(=O)CCl)c1 123%, Cc1ccc(C)c(N2CCN(C(=O)CCCCCn3c(=S)[nH]c4ccc(N5CCOCC5)cc4c3=O)CC2)c1 95%, CCCC(=O)OCCNc1cc(Sc2nc3ccccc3[nH]2)c2nonc2c1[N+](=O)[O-] 85.6%, FC(F)(F)c1cnc(NNC(=S)Nc2ccc(Cl)cc2)c(Cl)c1 76.2%, CC(=O)N1CCc2c(sc(NC(=O)c3ccc([N+](=O)[O-])o3)c2C(N)=O)C1 86.6%, C[C@@H]1CCCCO[C@H](CN(C)S(=O)(=O)c2ccc(Cl)cc2)[C@@H](C)CN([C@@H](C)CO)C(=O)c2cc(NC(=O)Nc3ccc(C(F)(F)F)cc3)ccc2O1 82%, C[C@@H]1CCCCO[C@H](CN(C)C(=O)Cc2ccccc2)[C@@H](C)CN([C@@H](C)CO)C(=O)c2cc(NC(=O)Nc3ccc(C(F)(F)F)cc3)ccc2O1 78.6%, C=CC[n+]1c(/C=C2\C=Cc3cc(C)ccc3N2CC)ccc2ccccc21 87.8%, COc1ccccc1C(=O)Nc1nc2ccccc2s1 101%, C[C@H]1CN([C@@H](C)CO)C(=O)c2cc(C#CCC3CCCC3)cnc2O[C@@H]1CN(C)S(=O)(=O)c1cccs1 67%, C[C@@H]1CCCCO[C@@H](CN(C)Cc2ccc(Cl)c(Cl)c2)[C@H](C)CN([C@@H](C)CO)C(=O)c2cc(NS(=O)(=O)c3cccs3)ccc2O1 71.2%, CCCCCCCCN1C(=O)[C@@H](CC(=O)N2CCN(C(=O)c3ccco3)CC2)C[C@@]2(C(=O)OC)C1=C[C@H](C(C)(C)C)O[C@@H]2C 84.1%, CN(C)c1ccc(C=c2c3ccccc3n3c2c2c([n+]3C)CCCC2)cc1 91.3%

inhibition, inconclusive:
OC(c1ccccc1)(c1ccccc1)C1CCN(CCCOc2ccc3c(c2)CCCC3)CC1 60.4%, COc1ccccc1CC(=O)Nc1ccc([N+](=O)[O-])cc1O 65.3%, C[C@@H]1CCCCO[C@@H](CN(C)C(=O)Nc2ccc(C(F)(F)F)cc2)[C@H](C)CN([C@H](C)CO)C(=O)c2cc(N(C)C)ccc2O1 60.6%, COc1ccc(-c2ccc3c(c2)[C@H]2[C@H](CCN2S(=O)(=O)c2ccccc2F)[C@@H](CO)N3)cc1 60.7%, C[C@@H]1CN([C@@H](C)CO)C(=O)c2cccc(NC(=O)CCCCCC(=O)Nc3ccccc3N)c2O[C@H]1CN(C)Cc1ccc(-c2ccccc2)cc1 62%, Oc1[nH]c2ccccc2c1N=Nc1nc(Nc2ccccc2)nc(N2CCOCC2)n1 67.7%, O=C(C[C@@H]1CC[C@@H]2[C@H](COC[C@@H](O)CN2Cc2ccc3c(c2)OCO3)O1)Nc1ccc(-c2ccccc2)cc1 62.1%, CCCN(C)C[C@@H]1Oc2cc(C#CCC3CCCC3)ccc2S(=O)(=O)N([C@H](C)CO)C[C@@H]1C 62.5%, COc1ccc(-c2ccc3c(c2)[C@H]2[C@H](CCN2S(=O)(=O)c2ccccc2C)[C@H](CO)N3)cc1 60.2%, CO[C@H]1CN(C)C(=O)c2ccc(NC(=O)c3ccc(-c4ccccc4)cc3)cc2OC[C@H](C)NC[C@H]1C 63.1%, O=C1C=CC(=O)N1CCNc1ncc(C(F)(F)F)cc1Cl 67.1%, Cc1nc2ccccc2cc1C(=O)N/N=C/c1cccs1 77.1%, COc1ccc(-c2ccc(-c3nc4ccc(C)cn4c3NC3CCCCC3)cc2OC)cc1 62.7%, O=C(C[C@H]1C=C[C@@H](NC(=O)C2CC2)[C@H](CO)O1)NCC1CC1 63.8%, Fc1ccc(C2c3[nH]c4ccccc4c3CCN2Cc2cccn2-c2ncccn2)cc1 (centres undefined) 63%, O=C(O)c1cccc(-c2nnn(Cc3ccccc3Cl)n2)c1 65.5%, C[C@H](CO)N1C[C@H](C)[C@H](CN(C)C(=O)NC2CCCCC2)Oc2c(NC(=O)Nc3ccc(F)cc3)cccc2C1=O 61.9%, COc1ccc(S(=O)(=O)Nc2ccc3c(c2)C(=O)N([C@@H](C)CO)C[C@H](C)[C@@H](CN(C)S(=O)(=O)c2ccc(F)cc2)OCCCC[C@@H](C)O3)cc1 63%, CC(=O)Nc1cccc(-c2ccnc3c2CC(C)(C(=O)Nc2ccc(Cl)c(C(F)(F)F)c2)O3)c1 (centres undefined) 60.8%, C[C@H](CO)N1C[C@H](C)[C@H](CN(C)C(=O)C2CCCCC2)OCCCC[C@H](C)Oc2ccc(NS(=O)(=O)c3ccc(Cl)cc3)cc2C1=O 61.5%, Cc1ccc(S(=O)(=O)Nc2ccc3c(c2)C(=O)N([C@H](C)CO)C[C@@H](C)[C@H](CN(C)Cc2ccc(Cl)c(Cl)c2)OCCCC[C@@H](C)O3)cc1 62%, C[C@H](CO)N1C[C@H](C)[C@@H](CN(C)S(=O)(=O)c2ccc(Cl)cc2)Oc2ccc(NC(=O)Nc3ccccc3)cc2CC1=O 69.5%, CCCCN(C(=O)C1CCCC1)c1c(N)n(CCC)c(=O)[nH]c1=O 62.4%, CC1=NOC(=O)/C1=C\c1ccc(-c2ccccc2Br)o1 62.9%, C[C@@H]1CCCCO[C@@H](CN(C)C(=O)Nc2ccc(C(F)(F)F)cc2)[C@@H](C)CN([C@@H](C)CO)C(=O)c2cc(N(C)C)ccc2O1 62.6%, CC(C)(C)c1ccc(S(=O)(=O)NCC2CCN(C(=O)C(=O)c3cc4ccccc4o3)CC2)cc1 60.7%, C[C@H]1CN([C@@H](C)CO)C(=O)c2c(c3ccccc3n2C)-c2ccccc2CO[C@H]1CN(C)C(=O)Nc1ccc2c(c1)OCO2 60.4%, COc1ccc(CN(C)C[C@H]2OCCCC[C@@H](C)Oc3ccc(NC(=O)Nc4ccc(C(F)(F)F)cc4)cc3C(=O)N([C@@H](C)CO)C[C@H]2C)cc1 72%, CCCNC(=O)[C@@H]1[C@@H](CO)[C@@H]2Cn3c(ccc(/C=C/c4ccccc4)c3=O)[C@@H]2N1CC1CC1 60.1%, O=C(N/N=C/c1cc(Br)cc(Br)c1O)c1ccncc1 63.8%, CCOC(=O)c1c(CSC(=N)N)n(-c2ccc(C)cc2)c2cc(Br)c(OC(C)=O)cc12 67%, CCn1ncc(C(=O)Nc2cccc(Cl)c2)c1C 60.2%, O=C1c2c(O)ccc(O)c2C(=O)c2c(NCCNCCO)ccc(NCCNCCO)c21 43.5%, COc1cc2cc(C(=O)N/N=C/c3ccccc3Cl)[nH]c2cc1OC 62%, COc1cc(CCNC2=CC(=O)c3ncccc3C2=O)ccc1O 62.6%, C[C@@H]1CN([C@H](C)CO)S(=O)(=O)c2ccc(C#Cc3ccccc3F)cc2O[C@H]1CN(C)C(=O)Cc1ccccc1 61%, CC1CCN(Cc2c(C(=O)N/N=C/c3cc(Br)ccc3O)nnn2-c2nonc2N)CC1 63.9%

inhibition, inactive:
Cc1ccc(NC(=O)/C=C/c2ccc3c(c2)OCO3)nc1 -163%, O=C(NC[C@@H]1CC[C@H]2[C@H](CN2C(=O)C2CCOCC2)O1)c1cccnc1 -11.9%, COCCNC(=O)C(c1ccc(O)cc1)N(Cc1ccccc1)C(=O)CCC(=O)Nc1ccccn1 (centres undefined) -4.18%, O=C(O)c1cc2c([nH]c1=O)CCCC2 8.54%, CCn1cc([N+](=O)[O-])c(C(=O)N2N=C(c3ccc(OC)cc3OC)CC2c2ccccc2O)n1 (centres undefined) -1.32%, O=C(CN1CC(c2ccccc2)CC1=O)N/N=C/c1cc(Br)ccc1O (centres undefined) 21.2%, COc1ccc(O)c(/C=N/Nc2nc3ccccc3[nH]2)c1 -11.6%, NC(=O)CC(NC(=O)c1ccc(Br)cc1)c1ccc(N2CCN(c3ccccc3)CC2)c([N+](=O)[O-])c1 (centres undefined) 32.3%, Cc1ccc(NC(=O)c2cc(CC(C)C)nc3ccccc23)cc1 38.5%, CC1CCN(S(=O)(=O)c2ccc3c(ccn3CCC(=O)N3CCCCC3)c2)CC1 7.71%, Cc1ccc(C(C)NC(=O)c2cc3cc(Br)ccc3oc2=N)cc1 (centres undefined) -8.18%, COc1cccc(NC(=O)Nc2ccc3c(c2)C(=O)N(C)C[C@@H](OC)[C@H](C)CN(CC2CC2)[C@@H](C)CO3)c1 -15.8%, C[C@@H]1CN([C@@H](C)CO)C(=O)c2cc(/C=C/c3ccccc3)cnc2O[C@H]1CN(C)C(=O)CN1CCOCC1 -8.16%, Cc1noc(C)c1S(=O)(=O)Nc1ccc2c(c1)C(=O)N([C@H](C)CO)C[C@H](C)[C@H](CN(C)C(=O)CCC(F)(F)F)OCCCC[C@@H](C)O2 2.67%, CCn1c(=O)cc(SCC(=O)Nc2ccc(C)cn2)c2ccccc21 57.8%, C[C@H](NC(=O)C[C@@H]1C=C[C@@H](NC(=O)C2CC2)[C@H](CO)O1)c1ccccc1 -4.33%, CN(C)CCNC(=O)c1ccccc1 -3.85%, C[C@H]1CN([C@@H](C)CO)C(=O)Cc2cc(NC(=O)Nc3ccc(F)cc3)ccc2O[C@H]1CN(C)Cc1ccc(Oc2ccccc2)cc1 22.8%
